Variants at the background level are over-represented here.
B1: TPR 5TU (parent)
chain: GGAUCUUCUCGAUCUAACAAAAAAGACAAAUCUGCCACAAAGCUUGAGAGCAUCUUCGGAUGCAGAGGCGGCAGCCUUCGGUGGCGCGAUAGCGCCAACGUUCUCAACUAUGACACGCAAAACGCGUGCUCCGUUGAAUGGAGUUUAUCAUG

Variants of: B1
Assay: polymerase ribozyme fitness, log enrichment relative to wild type (log ratio); higher = more active; in vitro selection for triplet polymerase activity
Outline: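 Mutant libraries were PCR-built and transcribed for each subunit of a heterodimeric triplet polymerase ribozyme and selected for one round in triplicate at −7 °C, frozen, before gel excision of extended constructs and streptavidin-bead capture. Input and output libraries were Illumina-sequenced, keeping genotypes with ≥10 input reads and ≥1 read per output. Fitness is a logarithmic ratio of genotype to wild-type enrichment, in base 2, using inverse-variance-weighted replicate averages.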

| Variant | polymerase ribozyme fitness (log ratio) |
| --- | --- |
| GGAUCUUCUCGCUCUAACAAAAAAGACAAAUCUGCCAUAAAGCUUGAGACCAUCUUCGGAUGCAGAGGCGGCAGCCUUCGGUGGCGCGAUAGCGCGAACGUUCUCAACUAUGACACUCAAAACGCGUGCUCCGUUGAAUGGAGUUUAUCAUG [A12C C38U G50C C96G G117U] | ≤ -4.2 |
| GGAUCUUCUCGCUCUAACAAAAAAGACAAAUCUGCCACAAAGCUUGAGAGCAUAUACGGAUGCAGAGGCAGCAGCCUUCGGUGGCGCGAUAGCGCCUACGUUCUACGCUAUGACACGCAAAGCGCGUGCUCCGUUGAAUGGAGUUUAUCAUG [A12C C54A U56A G70A A97U C105A A106C A107G A122G] | ≤ -4.2 |
| GGAUCUUCUCGCUCUAACAAAAAAGACAAAUCUGCCACAAAGCUUGAGAGCAUCUUCGGAUGCAGAGGCGGCAGCCUUCGGUGGGGCGAUAGCGCCAACGUUCUCAACUAUGACACGCAAACCGCGUGCUCCGUUGAAUGGAGUUUAUCAUG [A12C C85G A122C] | -2.14 |
| GGAUCUUCUCGCUCUAACAAAAAAGACAAAUCUGCCACAAAGCUUGAGAGCAUCUUCGGAUGCAGAGGCGGCAGCCUUCGGUGGUGCGAUAGCGCCAACGUUCUCAACUAUGACACGCAAAACGCGUGCUCCGUUGAAUGGUGUUUAUCAUG [A12C C85U A142U] | -1.48 |
| GGAUCUUCUCGCUCUAACAAAAAAGACAAAUCUGCCACAAAGCUUGAGAGCAUCUUCGGAUGCAGAGGCGGCAGCCUUCGGUGGUGCGAUAGCGCCAACGUUCUCAACUAUGACAAGCAAAGCGCGUGCUCCGUUGAAUGGAUUUUAUCAUG [A12C C85U C116A A122G G143U] | ≤ -4.2 |
| GGAUCUUCUCGCUCUAACAAAAAAGACAAAUCUGCCACAAAGCUUGAGAGCAUCUUCGGAUGCAGAGGCGGCAGCCUUCGGUGGCGCGAUAGCGCUAACGUUCUCAACUAUGACACGCAAAACGCGUGCUCCGUUGAAUGGAGUUUAUCAUG [A12C C96U] | -0.42 |
| GGAUCUUCUCGCUCUAACAAAAAACACAAAUCUGCCACAAAGCUUGAGAGCAUCUUCGGAUGCAGAGUCGGCAGAGUUCGGUGGCGCGAUAGGGCCAACGUUCUCAACUAUGACACGCAAAACGCGUGCUCCGUUGAAUGCAGUUUAUCAUG [A12C G25C G68U C75A C76G C93G G141C] | ≤ -4.2 |
| GGAUCUUCUCGCUCUAACAAAAAAGACAAAUCUACCACAAAGCUUGAGAGCAUCUUCGGAUGCAGAGGCGGCAGCCUUCGGUGGCGAGAUGGCGCCAACGUUUUCAACUAUGACACACAAAACGCGUGCUCCUUUGAAUGGAGUUUAUCAUG [A12C G34A C87A A91G C103U G117A G133U] | ≤ -4.2 |
| GGAUCUUCUCGCUCUAACAAAAAAGACAAAUCUGCCACAAACCGGGAGAGCAUCUUCGGAUGCAGAGACGGCAGCAUUCGGUGGCGCGAUAGCGCCAACGUUCUUAGCUAUGACACGCAAAACGCGUGCUCCGUUGAAUGGAGUUUAUCAUG [A12C G42C U44G U45G G68A C76A C105U A107G] | ≤ -4.2 |
| GGAUCUUCUCGCUCUAACAAAAAAGACAAAUCUGCCACAAAUCUUGAGACCAUCUUCGGAUGCAGAGGAGGCGGCCUUCGGUGGCGCGAUAGCGCCAACGUUCUCAACUAUGACAAGCGAAACGCGUGCUCCGUUGAAUGGAGUUUAUCUUG [A12C G42U G50C C69A A73G C116A A119G A150U] | ≤ -4.2 |
| GGAUCUUCUCGCUCUAACAAAAAAGACAAAUCUGCCACAAAGCUUGAGAGCAUCUUCCGAUGCAGAGGCGGCAGCCUUCGGUGGCGCGAUAGCGCGAACGUUCUCAACUAUGACACGCAAAACGCGUGCUCCGUUGAAUGGAGUUUAUCAUG [A12C G58C C96G] | -1.07 |
| GGAUCUUCUCGCUCUAACAAAAAAGACAAAUCUGCCACAAAGCUUGAGAGCAUCUUCGGAUGCAGAGGCGUCAGCCUUCGGUGGCGCGAUAGUGCCGACGUUUUCAACUAUGACACGCAAAACGCGUGCUGCGUUGAAUGCAGUUUAUCAUG [A12C G71U C93U A97G C103U C131G G141C] | ≤ -4.2 |
| GGAUCUUCUCGCUCUAACAAAAAAGACAAAUCUGCCACAAAGCUUGAGAGCAUCUUCGGAUGCAGAGGCGGCAGCCUUCGUUGGCGCGAUAGCGGCAACGUUCUCAACUAUGACACGCAAAUCGCGUGCUCCGUUGAAUGGAGUUUAGCAUU [A12C G81U C95G A122U U148G G152U] | ≤ -4.2 |
| GGAUCUUCUCGCUCUAACAAAAAAGACAAAUCUGCCACAAAGCUUGAGAGCAUCUUCGGAUGCAGAGGCGGCAGCCUUCGGUGGCGCGAUAGCUCCAACGUUCUCAACUAUGACACGCAAAACGCGUGCUCCGUUGAAUGGAGUUUAUCGUG [A12C G94U A150G] | -2.61 |
| GGAUCUUCUCGCUCUAACAAAAAAGACAAAUCUGCCACAAAGCUUGAGAGCAUCUUCGGAUGCAGAGGCGGCAGCCUUCGGUGGCGCGAUAGCUCCAACGUUCUCAACUAUGACACGCAAAACGCGUGCUCCGUUGAAUGGAGUUUAACAUG [A12C G94U U148A] | ≤ -4.2 |
| GGAUCUUCUCGCUCUAACAAAAAAGACAAAUCUGCCACAAAGCUUGAGAGCAUCUUCGGAUGCAGAGGCGGCAGCCUUCGGUGGCGCGAUAGCGCCAACGUUCUCAACUAUGACACGCAAAACGCGUGCUCCCUUGAAUGGAGUAUAUCAUG [A12C G133C U145A] | -1.11 |
| GGAUCUUCUCGCACUAACAAAAACGACAAAUCUGCCACAAAGCUUGAAAGCAUCUUCGGAUGCAGAGGCGGCAGCCUUCGGUGUCGCGAUAGCGCCAACGUUCUCAACUAUGACCCGGAAAACGCGUGCUCCGUUGAAUGGAGUUUAUCAUG [A12C U13A A24C G48A G84U A115C C118G] | ≤ -4.2 |
| GGAUCUUCUCGCUCAAACAAAAAAGACAAAUCUGCCACAAAGCUUGAGAGCAUCUACGGAUGCAGAGGCGGCAGCCUUCGGUGGCGCGAUAGCGCCAACGUUCUCAACUAUGACACGCAAAACGCGUGCUCCGUUGAAUGGAGUUUAUCAUG [A12C U15A U56A] | -0.709 |
| GGAUCUUCUCGCUCUAACAAAAAAGACAAAUCUGCCACAAAGCUUGAGAGCAUCUACGGAUGCAGAGGCGGCAGCGUCCGGUGGCGCGAUAGCGCUAACGUUCUCGACUAUGACACGCAAAAUGCGUGCUCCGUUGAAUGGCGUUUAUCAUG [A12C U56A C76G U78C C96U A106G C123U A142C] | ≤ -4.2 |

Source: the RNAGym collection of RNA variant scans (doi:10.1073/pnas.2313332121)
